# The supplement of paper PMC8728848
# The list shows a part of the results.
# B1: RBMC1 (Vibrio cholerae) (protein)
# chain: QQSQRVVTADNLMYLRSGFAIDAIGTTVNNLVGGPVQGTNGGVLRAPIALDQLQSVEVTSGLYNWGGYHIVAIKFTMKDGSSVLLGSTHYASNKKVETYTVPQGKRIKQINVWTGGWLVEGFQFVY
# Tests used:
# Assay in all cases: glycan array binding signal (z-score within array); higher = stronger binding
# Settings in all cases: glycan notation: IUPAC condensed, linker removed
# Neu5Ac(a2-8)Neu5Ac = biological target: Neu5Ac(a2-8)Neu5Ac
# Procedure, shortened: (§1)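 Negative Z-scores can be read as non-binding. The Z-score is calculated within each array and then averaged across arrays of one protein sequence at different concentrations or buffers and across linkers. Arrays, 3228 in all, were curated from the Consortium for Functional Glycomics database and kept only where the protein sequence was available.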
# [1] = biological target: Neu5Ac(a2-8)Neu5Ac(a2-3)Gal(b1-3)GalNAc(b1-4)[Neu5Ac(a2-3)]Gal(b1-4)Glc
# Procedure, shortened: as §1
# [2] = biological target: Neu5Ac(a2-8)Neu5Ac(a2-3)Gal(b1-3)GalNAc(b1-4)[Neu5Ac(a2-8)Neu5Ac(a2-3)]Gal(b1-4)Glc
# Procedure, shortened: as §1
# [3] = biological target: Neu5Ac(a2-8)Neu5Ac(a2-3)Gal(b1-4)Glc
# Procedure, shortened: as §1
# [4] = biological target: Neu5Ac(a2-8)Neu5Ac(a2-3)Gal(b1-4)GlcNAc
# Procedure, shortened: as §1
# [5] = biological target: Neu5Ac(a2-8)Neu5Ac(a2-3)[Gal(b1-3)GalNAc(b1-4)]Gal(b1-4)Glc
# Procedure, shortened: as §1
# [6] = biological target: Neu5Ac(a2-8)Neu5Ac(a2-3)[GalNAc(b1-4)]Gal(b1-4)Glc
# Procedure, shortened: as §1
# [7] = biological target: Neu5Ac(a2-8)Neu5Ac(a2-8)Neu5Ac
# Procedure, shortened: as §1
# [8] = biological target: Neu5Ac(a2-8)Neu5Ac(a2-8)Neu5Ac(a2-3)Gal(b1-4)Glc
# Procedure, shortened: as §1
# [9] = biological target: Neu5Ac(a2-8)Neu5Ac(a2-8)Neu5Ac(a2-3)[Gal(b1-3)GalNAc(b1-4)]Gal(b1-4)Glc
# Procedure, shortened: as §1
# [10] = biological target: Neu5Ac(a2-8)Neu5Ac(a2-8)Neu5Ac(a2-3)[GalNAc(b1-4)]Gal(b1-4)Glc
# Procedure, shortened: as §1
# [11] = biological target: Neu5Ac(a2-8)Neu5Ac(a2-8)Neu5Ac(a2-8)Neu5Ac(a2-3)[GalNAc(b1-4)]Gal(b1-4)Glc
# Procedure, shortened: as §1
# [12] = biological target: Neu5Ac(a2-8)Neu5Gc(a2-3)Gal(b1-4)GlcNAc
# Procedure, shortened: as §1
# [13] = biological target: Neu5Ac(b2-6)Gal(b1-4)GlcNAc
# Procedure, shortened: as §1
# Neu5Ac(b2-6)GalNAc = biological target: Neu5Ac(b2-6)GalNAc
# Procedure, shortened: as §1
# [14] = biological target: Neu5Ac9Ac(a2-3)Gal(b1-3)GlcNAc
# Procedure, shortened: as §1
# [15] = biological target: Neu5Ac9Ac(a2-3)Gal(b1-4)GlcNAc
# Procedure, shortened: as §1
# [16] = biological target: Neu5Ac9Ac(a2-6)Gal(b1-4)GlcNAc
# Procedure, shortened: as §1
# [17] = biological target: Neu5Gc(a2-3)Gal(b1-3)GlcNAc
# Procedure, shortened: as §1
# [18] = biological target: Neu5Gc(a2-3)Gal(b1-3)[Fuc(a1-4)]GlcNAc
# Procedure, shortened: as §1
# Neu5Gc(a2-3)Gal(b1-4)Glc = biological target: Neu5Gc(a2-3)Gal(b1-4)Glc
# Procedure, shortened: as §1
# [19] = biological target: Neu5Gc(a2-3)Gal(b1-4)GlcNAc
# Procedure, shortened: as §1
# [20] = biological target: Neu5Gc(a2-3)Gal(b1-4)GlcNAc(b1-3)Gal(b1-4)GlcNAc(b1-2)Man(a1-3)[Neu5Gc(a2-3)Gal(b1-4)GlcNAc(b1-3)Gal(b1-4)GlcNAc(b1-2)Man(a1-6)]Man(b1-4)GlcNAc(b1-4)GlcNAc
# Procedure, shortened: as §1
# [21] = biological target: Neu5Gc(a2-3)Gal(b1-4)[Fuc(a1-3)]GlcNAc
# Procedure, shortened: as §1
# [22] = biological target: Neu5Gc(a2-6)Gal(b1-4)GlcNAc
# Procedure, shortened: as §1
# Neu5Gc(a2-6)GalNAc = biological target: Neu5Gc(a2-6)GalNAc
# Procedure, shortened: as §1
# [23] = biological target: Neu5Gc(a2-8)Neu5Ac(a2-3)Gal(b1-4)GlcNAc
# Procedure, shortened: as §1
# [24] = biological target: Neu5Gc(a2-8)Neu5Gc(a2-3)Gal(b1-4)GlcNAc
# Procedure, shortened: as §1
# [25] = biological target: Neu5Gc(a2-8)Neu5Gc(a2-3)Gal(b1-4)GlcNAc(b1-3)Gal(b1-4)GlcNAc
# Procedure, shortened: as §1
# [26] = biological target: Neu5Gc(a2-8)Neu5Gc(a2-6)Gal(b1-4)GlcNAc
# Procedure, shortened: as §1
# [27] = biological target: Neu5Gc(b2-6)Gal(b1-4)GlcNAc
# Procedure, shortened: as §1
binder,measurement,setting,value
B1,glycan array binding signal (z-score),Neu5Ac(a2-8)Neu5Ac,0.122
same,glycan array binding signal (z-score),[1],-0.379
same,glycan array binding signal (z-score),[2],-0.293
same,glycan array binding signal (z-score),[3],-0.226
same,glycan array binding signal (z-score),[4],-0.382
same,glycan array binding signal (z-score),[5],-0.275
same,glycan array binding signal (z-score),[6],-0.339
same,glycan array binding signal (z-score),[7],-0.256
same,glycan array binding signal (z-score),[8],-0.137
same,glycan array binding signal (z-score),[9],-0.28
same,glycan array binding signal (z-score),[10],-0.21
same,glycan array binding signal (z-score),[11],-0.417
same,glycan array binding signal (z-score),[12],-0.314
same,glycan array binding signal (z-score),[13],-0.304
same,glycan array binding signal (z-score),Neu5Ac(b2-6)GalNAc,-0.428
same,glycan array binding signal (z-score),[14],-0.194
same,glycan array binding signal (z-score),[15],-0.303
same,glycan array binding signal (z-score),[16],-0.373
same,glycan array binding signal (z-score),[17],-0.224
same,glycan array binding signal (z-score),[18],-0.039
same,glycan array binding signal (z-score),Neu5Gc(a2-3)Gal(b1-4)Glc,-0.097
same,glycan array binding signal (z-score),[19],-0.337
same,glycan array binding signal (z-score),[20],1.56
same,glycan array binding signal (z-score),[21],-0.205
same,glycan array binding signal (z-score),[22],-0.349
same,glycan array binding signal (z-score),Neu5Gc(a2-6)GalNAc,-0.17
same,glycan array binding signal (z-score),[23],-0.406
same,glycan array binding signal (z-score),[24],-0.358
same,glycan array binding signal (z-score),[25],-0.205
same,glycan array binding signal (z-score),[26],-0.356
same,glycan array binding signal (z-score),[27],-0.184
